US20220340629A1, “Myosin Derived Peptides and Related Compounds with Anticoagulant Activities” (THE SCRIPPS RESEARCH INSTITUTE, priority 0001, published 2022)
At least one compound was matched to its structure with a doubt left. Starred links: 1 amine or outer side, 2 acyl side, 3 side chain; linkers in the order of their positions; H or OH if unused. Positions of bridges follow the written chain, without caps; N, C: chain ends. Non-standard residues stand in square brackets, D forms with d. Residues, ends and D or L forms follow the SMILES beside them. *: point of attachment. Arachidoyl = CCCCCCCCCCCCCCCCCCCC(=O)*; NMeN = CN[C@@H](CC(N)=O)C(=O)O; Suc = O=C(CCC(=O)[*:2])[*:1]; Nle = CCCC[C@H](N)C(=O)O

Target: skeletal muscle myosin-supported prothrombin activation by factors Xa and Va (Homo sapiens, UniProt P00742)
Test: Assay 1A: prothrombin activation by factor Xa/factor Va/myosin in purified system
Format: biochemical, human factors Xa and Va; rabbit skeletal muscle myosin
Details: factor Va 5 nM, factor Xa 0.2 nM, prothrombin 0.75 μM, 10 min

Chain of skeletal muscle myosin-supported prothrombin activation by factors Xa and Va (P00742 41-179): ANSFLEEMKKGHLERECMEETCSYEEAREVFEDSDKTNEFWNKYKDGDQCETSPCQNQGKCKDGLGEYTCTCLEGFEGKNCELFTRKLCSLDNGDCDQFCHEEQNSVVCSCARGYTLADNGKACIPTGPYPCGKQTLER
Chain of skeletal muscle myosin-supported prothrombin activation by factors Xa and Va (P00742 235-488): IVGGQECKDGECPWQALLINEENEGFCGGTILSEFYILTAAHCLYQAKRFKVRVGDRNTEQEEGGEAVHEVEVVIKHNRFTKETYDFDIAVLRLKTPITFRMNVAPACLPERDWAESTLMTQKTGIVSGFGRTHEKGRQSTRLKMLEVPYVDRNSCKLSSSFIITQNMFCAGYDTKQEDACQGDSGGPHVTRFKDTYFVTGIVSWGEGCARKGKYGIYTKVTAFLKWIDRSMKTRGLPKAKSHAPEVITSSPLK
Chain of skeletal muscle myosin-supported prothrombin activation by factors Xa and Va (P12259 29-737 partner): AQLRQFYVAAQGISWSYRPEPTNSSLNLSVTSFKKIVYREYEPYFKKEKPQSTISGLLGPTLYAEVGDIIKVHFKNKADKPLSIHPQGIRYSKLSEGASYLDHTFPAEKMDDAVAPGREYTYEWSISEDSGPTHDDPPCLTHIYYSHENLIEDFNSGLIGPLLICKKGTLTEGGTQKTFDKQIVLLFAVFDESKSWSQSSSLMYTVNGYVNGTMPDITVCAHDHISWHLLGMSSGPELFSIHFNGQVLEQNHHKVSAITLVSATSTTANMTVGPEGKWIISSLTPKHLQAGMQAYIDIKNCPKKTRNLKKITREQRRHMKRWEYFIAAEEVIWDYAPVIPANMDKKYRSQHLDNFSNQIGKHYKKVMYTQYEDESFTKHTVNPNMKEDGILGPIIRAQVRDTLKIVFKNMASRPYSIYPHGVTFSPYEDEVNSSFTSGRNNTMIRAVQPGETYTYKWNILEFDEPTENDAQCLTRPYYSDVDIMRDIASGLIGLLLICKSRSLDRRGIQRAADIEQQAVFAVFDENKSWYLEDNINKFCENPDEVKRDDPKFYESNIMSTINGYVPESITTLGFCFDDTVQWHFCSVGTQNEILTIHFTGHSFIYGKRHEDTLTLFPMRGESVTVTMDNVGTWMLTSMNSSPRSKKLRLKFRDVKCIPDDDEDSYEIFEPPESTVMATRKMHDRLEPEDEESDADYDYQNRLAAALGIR
Chain of skeletal muscle myosin-supported prothrombin activation by factors Xa and Va (P12259 1574-2224 partner): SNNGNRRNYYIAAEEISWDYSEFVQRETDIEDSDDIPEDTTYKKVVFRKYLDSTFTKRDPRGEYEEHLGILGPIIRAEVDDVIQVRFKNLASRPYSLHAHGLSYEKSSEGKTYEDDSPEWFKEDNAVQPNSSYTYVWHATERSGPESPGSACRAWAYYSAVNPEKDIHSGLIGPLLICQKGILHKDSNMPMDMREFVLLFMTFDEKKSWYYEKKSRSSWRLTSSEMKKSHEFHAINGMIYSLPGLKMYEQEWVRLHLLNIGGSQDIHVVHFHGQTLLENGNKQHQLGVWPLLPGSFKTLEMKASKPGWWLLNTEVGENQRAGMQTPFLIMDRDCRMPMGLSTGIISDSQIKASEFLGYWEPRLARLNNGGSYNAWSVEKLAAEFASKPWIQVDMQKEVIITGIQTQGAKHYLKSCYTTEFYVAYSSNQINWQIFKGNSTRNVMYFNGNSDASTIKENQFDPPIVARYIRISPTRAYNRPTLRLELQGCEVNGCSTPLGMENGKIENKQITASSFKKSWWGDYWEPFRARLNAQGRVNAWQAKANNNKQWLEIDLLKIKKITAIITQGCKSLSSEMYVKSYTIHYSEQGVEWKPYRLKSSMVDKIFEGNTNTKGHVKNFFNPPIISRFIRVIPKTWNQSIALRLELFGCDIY

| SMILES | IC50 [µM] |
| --- | --- |
| CC[C@H](C)[C@H](NC(=O)[C@H](C)NC(=O)[C@H](CCC(=O)O)NC(=O)[C@H](CCCNC(=N)N)NC(=O)[C@H](CCCNC(=N)N)NC(=O)[C@H](CCC(=O)O)NC(=O)[C@@H]1CCCCNC(=O)CCC(=O)NCCCC[C@@H]2NC(=O)[C@H](C)NC(=O)[C@H](CC(C)C)NC(=O)[C@@H](NC(=O)CNC(=O)[C@H](CCCNC(=N)N)NC(=O)[C@H](CS)NC(=O)[C@H](CCCNC(=N)N)NC(=O)[C@H](C)N)CCCCNC(=O)CCC(=O)NCCCC[C@H](NC(=O)[C@H](Cc3ccc(O)cc3)NC(=O)[C@H](CCC(=O)O)NC(=O)[C@H](C(C)C)NC2=O)C(=O)N[C@@H](CCCNC(=N)N)C(=O)N[C@@H](CCSC)C(=O)N1)C(=O)N[C@@H](Cc1ccccc1)C(=O)N[C@@H](CS)C(=O)N[C@H](C(=O)N[C@@H](CCC(N)=O)C(=O)N[C@@H](Cc1ccc(O)cc1)C(=O)N[C@@H](CC(N)=O)C(=O)N[C@H](C(=O)N[C@@H](CCCNC(=N)N)C(=O)N[C@@H](CO)C(=O)N[C@@H](Cc1ccccc1)C(=O)N[C@@H](CCSC)C(=O)N[C@@H](CC(N)=O)C(=O)N[C@H](C(=O)N[C@@H](CCCCN)C(=O)N[C@@H](Cc1c[nH]cn1)C(=O)N[C@@H](Cc1c[nH]c2ccccc12)C(=O)N1CCC[C@H]1C(=O)N[C@@H](Cc1c[nH]c2ccccc12)C(N)=O)C(C)C)[C@@H](C)CC)[C@@H](C)CC [HC155] (H-ARCRGKLAKVEYKRMKERREAIFCIQYNIRSFMNVKHWPW-NH2; linker 6-13, 9-16 via Suc (inferred); N-terminus and C-terminus assumed) | 0.83 |
| CCCC[C@H](NC(=O)[C@H](Cc1ccccc1)NC(=O)[C@H](CO)NC(=O)[C@H](CCCNC(=N)N)NC(=O)[C@@H](NC(=O)[C@H](CC(N)=O)NC(=O)[C@H](Cc1ccc(O)cc1)NC(=O)[C@H](CCC(N)=O)NC(=O)[C@@H](NC(=O)[C@H](CS)NC(=O)[C@H](Cc1ccccc1)NC(=O)[C@@H](NC(=O)[C@H](C)NC(=O)[C@H](CCC(=O)O)NC(=O)[C@H](CCCNC(=N)N)NC(=O)[C@H](CCCNC(=N)N)NC(=O)[C@H](CCC(=O)O)NC(=O)[C@@H](NC(=O)[C@H](CCCC)NC(=O)[C@H](CCCNC(=N)N)NC(=O)[C@H](CCC(N)=O)NC(=O)[C@H](Cc1ccc(O)cc1)NC(=O)[C@H](CCC(=O)O)NC(=O)[C@@H](NC(=O)[C@H](CCCNC(=N)N)NC(=O)[C@H](C)NC(=O)[C@H](CC(C)C)NC(=O)[C@H](Cc1ccccc1)NC(=O)CNC(=O)[C@H](CCCNC(=N)N)NC(=O)[C@H](CS)NC(=O)[C@H](CCCNC(=N)N)NC(=O)[C@H](C)N)C(C)C)C(C)C)[C@@H](C)CC)[C@@H](C)CC)[C@@H](C)CC)C(=O)N[C@@H](CC(N)=O)C(=O)N[C@H](C(=O)N[C@@H](CCCCN)C(=O)N[C@@H](Cc1c[nH]cn1)C(=O)N[C@@H](Cc1c[nH]c2ccccc12)C(=O)N1CCC[C@H]1C(=O)N[C@@H](Cc1c[nH]c2ccccc12)C(N)=O)C(C)C [HC095] (H-ARCRGFLARVEYQR[Nle]VERREAIFCIQYNIRSF[Nle]NVKHWPW-NH2; N-terminus and C-terminus assumed) | 1.1 |
| CC[C@H](C)[C@H](NC(=O)[C@H](C)NC(=O)[C@H](CCC(=O)O)NC(=O)[C@H](CCCNC(=N)N)NC(=O)[C@H](CCCNC(=N)N)NC(=O)[C@H](CCC(=O)O)NC(=O)[C@@H]1CCCCNC(=O)CCC(=O)NCCCC[C@H](NC(=O)[C@H](C)NC(=O)[C@H](CC(C)C)NC(=O)[C@H](Cc2ccccc2)NC(=O)CNC(=O)[C@H](CCCNC(=N)N)NC(=O)[C@H](CS)NC(=O)[C@H](CCCNC(=N)N)NC(=O)[C@H](C)N)C(=O)N[C@@H](C(C)C)C(=O)N[C@@H](CCC(=O)O)C(=O)N[C@@H](Cc2ccc(O)cc2)C(=O)N[C@@H](CCC(N)=O)C(=O)N[C@@H](CCCNC(=N)N)C(=O)N[C@@H](CCSC)C(=O)N1)C(=O)N[C@@H](Cc1ccccc1)C(=O)N[C@H]1CCCCNC(=O)CCC(=O)NCCCC[C@@H](C(=O)N[C@@H](Cc2ccccc2)C(=O)N[C@@H](CCSC)C(=O)N[C@@H](CC(N)=O)C(=O)N[C@H](C(=O)N[C@@H](CCCCN)C(=O)N[C@@H](Cc2c[nH]cn2)C(=O)N[C@@H](Cc2c[nH]c3ccccc23)C(=O)N2CCC[C@H]2C(=O)N[C@@H](Cc2c[nH]c3ccccc23)C(N)=O)C(C)C)NC(=O)[C@H](CCCNC(=N)N)NC(=O)[C@H]([C@@H](C)CC)NC(=O)[C@H](CC(N)=O)NC(=O)[C@H](Cc2ccc(O)cc2)NC(=O)[C@H](CCC(N)=O)NC(=O)[C@H]([C@@H](C)CC)NC1=O [HC160] (H-ARCRGFLAKVEYQRMKERREAIFKIQYNIRKFMNVKHWPW-NH2; linker 9-16, 24-31 via Suc (inferred); N-terminus and C-terminus assumed) | 0.75 |
| CC[C@H](C)[C@H](NC(=O)[C@H](C)NC(=O)[C@H](CCC(=O)O)NC(=O)[C@H](CCCNC(=N)N)NC(=O)[C@H](CCCNC(=N)N)NC(=O)[C@H](CCC(=O)O)NC(=O)[C@@H]1CCCCNC(=O)CCC(=O)NCCCC[C@H](NC(=O)[C@H](C)NC(=O)[C@H](CC(C)C)NC(=O)[C@H](Cc2ccccc2)NC(=O)CNC(=O)[C@H](CCCNC(=N)N)NC(=O)[C@H](CS)NC(=O)[C@H](CCCNC(=N)N)NC(=O)[C@H](C)N)C(=O)N[C@@H](C(C)C)C(=O)N[C@@H](CCC(=O)O)C(=O)N[C@@H](Cc2ccc(O)cc2)C(=O)N[C@@H](CCC(N)=O)C(=O)N[C@@H](CCCNC(=N)N)C(=O)N[C@@H](CCSC)C(=O)N1)C(=O)N[C@@H](Cc1ccccc1)C(=O)N[C@@H](CS)C(=O)N[C@H](C(=O)N[C@@H](CCC(N)=O)C(=O)N[C@@H](Cc1ccc(O)cc1)C(=O)N[C@@H](CC(N)=O)C(=O)N[C@H](C(=O)N[C@@H](CCCNC(=N)N)C(=O)N[C@H]1CCCCNC(=O)CCC(=O)NCCCC[C@@H](C(=O)N2CCC[C@H]2C(=O)N[C@@H](Cc2c[nH]c3ccccc23)C(N)=O)NC(=O)[C@H](Cc2c[nH]cn2)NC(=O)[C@H](CCCCN)NC(=O)[C@H](C(C)C)NC(=O)[C@H](CC(N)=O)NC(=O)[C@H](CCSC)NC(=O)[C@H](Cc2ccccc2)NC1=O)[C@@H](C)CC)[C@@H](C)CC [HC161] (H-ARCRGFLAKVEYQRMKERREAIFCIQYNIRKFMNVKHKPW-NH2; linker 9-16, 31-38 via Suc (inferred); N-terminus and C-terminus assumed) | 0.69 |
| CCCCCCCCCCCCCCCCCCCC(=O)NCCCC[C@H](NC(=O)[C@H](CCCNC(=N)N)NC(=O)[C@@H](NC(=O)[C@H](CC(N)=O)NC(=O)[C@H](Cc1ccc(O)cc1)NC(=O)[C@H](CCC(N)=O)NC(=O)[C@@H](NC(=O)[C@H](CO)NC(=O)[C@H](Cc1ccccc1)NC(=O)[C@@H](NC(=O)[C@H](C)N)[C@@H](C)CC)[C@@H](C)CC)[C@@H](C)CC)C(=O)N[C@@H](Cc1ccccc1)C(=O)N[C@@H](CCCC)C(=O)N(C)[C@@H](CC(N)=O)C(=O)N[C@H](C(=O)N[C@@H](CCCCN)C(=O)N[C@@H](Cc1c[nH]cn1)C(=O)N[C@@H](Cc1c[nH]c2ccccc12)C(=O)N1CCC[C@H]1C(=O)N[C@@H](Cc1c[nH]c2ccccc12)C(=O)N[C@@H](CCCC)C(=O)N[C@@H](CCCCN)C(=O)N[C@@H](CCCCN)C(=O)N[C@@H](CCCCN)C(=O)N[C@@H](CCCCN)C(=O)N[C@@H](CCCCN)C(N)=O)C(C)C [SL-1504-074A, AIFSIQYNIRXF(Nle)(N-MeN)VKHWPW(Nle)KKKKK] (H-AIFSIQYNIRK(Arachidoyl)F[Nle][NMeN]VKHWPW[Nle]KKKKK-NH2) | 0.044 |
| CC[C@H](C)[C@H](NC(=O)[C@H](C)NC(=O)[C@H](CCC(=O)O)NC(=O)[C@H](CCCNC(=N)N)NC(=O)[C@H](CCCNC(=N)N)NC(=O)[C@H](CCC(=O)O)NC(=O)[C@@H]1CCCCNC(=O)CCC(=O)NCCCC[C@@H]2NC(=O)[C@H](C)NC(=O)[C@H](CC(C)C)NC(=O)[C@H](Cc3ccccc3)NC(=O)[C@@H](NC(=O)[C@H](CCCNC(=N)N)NC(=O)[C@H](CS)NC(=O)[C@H](CCCNC(=N)N)NC(=O)[C@H](C)N)CCCCNC(=O)CCC(=O)NCCCC[C@H](NC(=O)[C@H](CCC(=O)O)NC(=O)[C@H](C(C)C)NC2=O)C(=O)N[C@@H](CCC(N)=O)C(=O)N[C@@H](CCCNC(=N)N)C(=O)N[C@@H](CCSC)C(=O)N1)C(=O)N[C@@H](Cc1ccccc1)C(=O)N[C@@H](CS)C(=O)N[C@H](C(=O)N[C@@H](CCC(N)=O)C(=O)N[C@@H](Cc1ccc(O)cc1)C(=O)N[C@@H](CC(N)=O)C(=O)N[C@H](C(=O)N[C@@H](CCCNC(=N)N)C(=O)N[C@@H](CO)C(=O)N[C@@H](Cc1ccccc1)C(=O)N[C@@H](CCSC)C(=O)N[C@@H](CC(N)=O)C(=O)N[C@H](C(=O)N[C@@H](CCCCN)C(=O)N[C@@H](Cc1c[nH]cn1)C(=O)N[C@@H](Cc1c[nH]c2ccccc12)C(=O)N1CCC[C@H]1C(=O)N[C@@H](Cc1c[nH]c2ccccc12)C(N)=O)C(C)C)[C@@H](C)CC)[C@@H](C)CC [HC154] (H-ARCRKFLAKVEKQRMKERREAIFCIQYNIRSFMNVKHWPW-NH2; linker 5-12, 9-16 via Suc (inferred); N-terminus and C-terminus assumed) | 1.1 |
| CC[C@H](C)[C@H](NC(=O)[C@H](C)NC(=O)[C@H](CCC(=O)O)NC(=O)[C@H](CCCNC(=N)N)NC(=O)[C@H](CCCNC(=N)N)NC(=O)[C@H](CCC(=O)O)NC(=O)[C@@H]1CCCCNC(=O)CCC(=O)NCCCC[C@@H]2NC(=O)[C@H](C)NC(=O)[C@H](CC(C)C)NC(=O)[C@H](Cc3ccccc3)NC(=O)CNC(=O)[C@H](CCCNC(=N)N)NC(=O)[C@@H](NC(=O)[C@H](CCCNC(=N)N)NC(=O)[C@H](C)N)CCCCNC(=O)CCC(=O)NCCCC[C@H](NC2=O)C(=O)N[C@@H](CCC(=O)O)C(=O)N[C@@H](Cc2ccc(O)cc2)C(=O)N[C@@H](CCC(N)=O)C(=O)N[C@@H](CCCNC(=N)N)C(=O)N[C@@H](CCSC)C(=O)N1)C(=O)N[C@@H](Cc1ccccc1)C(=O)N[C@@H](CS)C(=O)N[C@H](C(=O)N[C@@H](CCC(N)=O)C(=O)N[C@@H](Cc1ccc(O)cc1)C(=O)N[C@@H](CC(N)=O)C(=O)N[C@H](C(=O)N[C@@H](CCCNC(=N)N)C(=O)N[C@@H](CO)C(=O)N[C@@H](Cc1ccccc1)C(=O)N[C@@H](CCSC)C(=O)N[C@@H](CC(N)=O)C(=O)N[C@H](C(=O)N[C@@H](CCCCN)C(=O)N[C@@H](Cc1c[nH]cn1)C(=O)N[C@@H](Cc1c[nH]c2ccccc12)C(=O)N1CCC[C@H]1C(=O)N[C@@H](Cc1c[nH]c2ccccc12)C(N)=O)C(C)C)[C@@H](C)CC)[C@@H](C)CC [HC153] (H-ARKRGFLAKKEYQRMKERREAIFCIQYNIRSFMNVKHWPW-NH2; linker 3-10, 9-16 via Suc (inferred); N-terminus and C-terminus assumed) | 0.39 |
